# Experimental data: paper PMC11363325, “A Novel Prodrug Strategy Based on Reversibly Degradable Guanidine Imides for High Oral Bioavailability and Prolonged Pharmacokinetics of Broad-Spectrum Anti-influenza Agents” (ACS Central Science, 2024)
# Key:
# B/Lee/1940 (Lee) = assay: microbe, parasite or virus in culture; conditions: Influenza B virus, MDCK
# [1] = Stability of OSC-GCDIs and GOC release in BALB/c serum; assay type: in vitro ADME; conditions: mouse, 200 μM prodrug, 37 °C
# Procedure: (§1) Stability of OSC-GCDIs in serum
# Stability of the GCDI prodrugs were examined by incubating prodrugs in human and BALB/c serum at 37 °C and 200 μM final concentration. Briefly, each prodrug was dissolved in DMSO to be 20 mM concentration, then 10 μL of each prodrug solution was mixed with 990 μL of serum. At different time intervals, 100 μL of the samples were taken and mixed with 100 μL of MeCN. Samples were centrifuged at 14,000 rpm for 10 min at 4 °C and the supernatant was immediately frozen (−80 °C). After thawing and shaking, the samples were filtered using a polytetrafluoroethylene (PTFE) filter (0.20 μm pore size) […]
# Release profiles of GOC from the OSC -GCDI prodrugs conjugated to human serum albumin OSC-GCDIs were dissolved in Dulbecco ’s Phosphate-Buffered Saline (DPBS) containing HSA (20 mg/mL) to be concentration of 1 mM, then the mixture was shaken for 10 min at 37 °C. Unbound OSC-GCDIs were removed by washing twice with DPBS using Vivaspin 500 ultrafiltration units (10 kDa cutoff).
# Following centrifugation, the samples were redissolved in 1 mL DPBS. Before incubation at 37 °C, 50 µL sample was taken and mixed with 50 µL of 1 M KOH in m ethanol solution to completely hydrolyze the conjugates and determine the initial drug concentration bound to HSA. […] Then, the concentration of the released GOC was quantified by HPLC. […]
# [2] = Stability of OSC-GCDIs in human serum; assay type: in vitro ADME; conditions: 200 μM prodrug, 37 °C
# Procedure: as §1
# Stability of the GCDI prodrugs were examined by incubating prodrugs in human and BALB/c serum at 37 °C and 200 μM final concentration. Briefly, each prodrug was dissolved in DMSO to be 20 mM concentration, then 10 μL of each prodrug solution was mixed with 990 μL of serum. At different time intervals, 100 μL of the samples were taken and mixed with 100 μL of MeCN. Samples were centrifuged at 14,000 rpm for 10 min at 4 °C and the supernatant was immediately frozen (−80 °C). After thawing
# [3] = Stability of OSC-GCDIs in phosphate buffers; assay type: physicochemical; conditions: sodium phosphate buffer
# [4] = pH 6.5, phosphate buffer pH 6.5, 37 °C
# [5] = pH 7.4, phosphate buffer pH 7.4, 37 °C
# [6] = pH 8, phosphate buffer pH 8.0, 37 °C
Compound,EC50 (B/Lee/1940 (Lee)),half-life at 200 μM [1],half-life at 200 μM [2],"half-life at 100 μM ([3]; pH 2, phosphate buffer pH 2.0, 37 °C)","half-life at 100 μM [3, 4]","half-life at 100 μM [3, 5]","half-life at 100 μM [3, 6]"
CCC(CC)O[C@@H]1C=C(C(=O)O)C[C@H](N=C(N2C(=O)[C@H]3CC=CC[C@H]3C2=O)N2C(=O)[C@H]3CC=CC[C@H]3C2=O)[C@H]1NC(C)=O [OSC-GCDI(Ce)],12 ± 4.85 µM,,,,,,
CCC(CC)O[C@@H]1C=C(C(=O)O)C[C@H](N=C(N2C(=O)CC(C)C2=O)N2C(=O)CC(C)C2=O)[C@H]1NC(C)=O (stereo partly drawn) [OSC-GCDI(M)],,13.5 min,18.4 min,> 1440 min,866 min,108 min,39.5 min
CCC(CC)O[C@@H]1C=C(C(=O)O)C[C@H](N=C(N2C(=O)CCC2=O)N2C(=O)CCC2=O)[C@H]1NC(C)=O [OSC-GCDI(S)],,17.5 min,16.7 min,,770 min,102 min,42 min
